The text below walks through data of patent US20260184782A1 (TWIST BIOSCIENCE, published 2026).

Assay [1] has as its target T1, TIGIT (UniProt Q495A1 22-141, limits assumed).
T1 construct: also called T cell immunoreceptor with Ig and ITIM domains; hTIGIT
T1 sequence (looked up): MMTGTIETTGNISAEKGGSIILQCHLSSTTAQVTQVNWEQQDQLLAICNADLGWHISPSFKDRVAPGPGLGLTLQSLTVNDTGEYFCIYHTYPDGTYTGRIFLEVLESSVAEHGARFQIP
The experiment in a line: SPR (Carterra), VHH-Fc.

Assay [2] deals with T2, TIGIT (UniProt Q495A1 22-141, limits assumed).
T2 construct: construct not described; also called T cell immunoreceptor with Ig and ITIM domains
T2 sequence (looked up): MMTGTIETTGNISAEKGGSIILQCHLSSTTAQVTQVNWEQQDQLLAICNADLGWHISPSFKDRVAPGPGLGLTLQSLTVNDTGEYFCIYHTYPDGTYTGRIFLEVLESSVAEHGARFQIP
The assay can be described thus: Carterra SPR, VHH-Fc.

For assay [3], the target named is T2, TIGIT. The assay can be described thus: ELISA.

B1: TIGIT-30-54 (VHH-Fc) (Fc fusion)
chain: EVQLVESGGGLVQAGGSLRLSCAASGFTFRSFGMGWFRQAPGKEREFVASTIWSRGDTYYADSVKGRFTISADNAKNTVYLQMNSLKPEDTAVYYCASSPYGPLYRSTHYYDWGQGTQVTVSSGGGGS[in this place human IgG1 Fc with C220S (EU numbers)]
A word on the Kd: it is a measure of binding affinity in units of concentration. For orientation: koff means a measure of how fast the partners let go of each other. A low value points to a long-lived complex. As a reminder, the kon is the rate constant with which the complex forms. Lower therefore signals slower complex formation. On to B1, for which, in the assay with TIGIT [1], binding was put at a Kd of 58 nM, the koff amounted to 0.014 s⁻¹ and the kon turned out to be 240000 M⁻¹ s⁻¹.

B2: TIGIT-29-29 VHH-Fc (Fc fusion)
chain: EVQLVESGGGLVQAGGSLRLSCAASGRTFSNYAMGWFRQAPGKEREFVAAITWSGTRTDYADSVKGRFTISADNAKNTVYLQMNSLKPEDTAVYYCAAAAWTIYEYDYWGQGTQVTVSSGGGGS[in this place human IgG1 Fc with C220S (EU numbers)]
In the assay with TIGIT [2], B2 yielded a Kd of 108 nM, a koff of 110 s⁻¹ and a kon of 1e+09 M⁻¹ s⁻¹.

B3: TIGIT-29-26 VHH-Fc (Fc fusion)
chain: EVQLVESGGGLVQAGGSLRLSCAASGFTFDNYAMGWFRQAPGKEREFVATITWSGTRTNYADSVKGRFTISADNAKNTVYLQMNSLKPEDTAVYYCAAAAWTIYDYDYWGQGTQVTVSSGGGGS[in this place human IgG1 Fc with C220S (EU numbers)]
In the assay with TIGIT [2], B3 registered a Kd of 105 nM, a koff of 87 s⁻¹ and an association rate constant (kon) of 8.2e+08 M⁻¹ s⁻¹.

B4: TIGIT-29-30 VHH-Fc (Fc fusion)
chain: EVQLVESGGGLVQAGGSLRLSCAASGFTFSSYAMGWFRQAPGKEREFVAAITWSGTRTDYADSVKGRFTISADNAKNTVYLQMNSLKPEDTAVYYCAAAAWRYSEYDYWGQGTQVTVSSGGGGS[in this place human IgG1 Fc with C220S (EU numbers)]
In the assay with TIGIT [2], B4 showed a Kd of 65 nM, an off-rate (koff) of 0.096 s⁻¹ and a kon of 1.5e+06 M⁻¹ s⁻¹.

B5: TIGIT-29-40 VHH-Fc (Fc fusion)
chain: EVQLVESGGGLVQAGGSLRLSCAASGFTFDNYAMGWFRQAPGKEREFVATITWSGTRTNYADSVKGRFTISADNAKNTVYLQMNSLKPEDTAVYYCAAAAWTIYDYDYWGQGTQVTVSSGGGGS[in this place human IgG1 Fc with C220S (EU numbers)]
As for B5, in the assay with TIGIT [2], binding was characterised by a dissociation constant (Kd) of 90 nM, the koff amounted to 69 s⁻¹ and the kon worked out at 7.6e+08 M⁻¹ s⁻¹.

B6: TIGIT-29-03 VHH-Fc (Fc fusion)
chain: EVQLVESGGGLVQAGGSLRLSCAASGFTFSSYAMGWFRQAPGKEREFVAAITWSGTRTDYADSVKGRFTISADNAKNTVYLQMNSLKPEDTAVYYCAAAAWRYSEYDYWGQGTQVTVSSGGGGS[in this place human IgG1 Fc with C220S (EU numbers)]
notes: also called 29-3
As to B6, in the assay with TIGIT [2], the Kd was 94 nM, the off-rate constant (koff) came out at 0.11 s⁻¹ and the kon is 1.2e+06 M⁻¹ s⁻¹.

B7: TIGIT-29-02 VHH-Fc (Fc fusion)
chain: EVQLVESGGGLVQAGGSLRLSCAASGRTFDIYAMGWFRQAPGKEREWVSTISWSGGRTYYADSVKGRFTISADNAKNTVYLQMNSLKPEDTAVYYCAARPVYRTYGSWGQGTQVTVSSGGGGS[in this place human IgG1 Fc with C220S (EU numbers)]
Take B7: in the assay with TIGIT [3], the ELISA was found to be 4.1. Also, in the assay with TIGIT [2], the Kd was found to be 204 nM, the koff was 8.5 s⁻¹ and the kon amounted to 4.2e+07 M⁻¹ s⁻¹.

B8: TIGIT-29-5 VHH-Fc (Fc fusion)
chain: EVQLVESGGGLVQAGGSLRLSCAASGRTFSIYAMGWFRQAPGKEREWVATISSSGDRTYYADSVKGRFTISADNAKNTVYLQMNSLKPEDTAVYYCAARRYGRRYDYWGQGTQVTVSSGGGGS[in this place human IgG1 Fc with C220S (EU numbers)]
As to B8, in the assay with TIGIT [3], the ELISA is 3.1. Moreover, in the assay with TIGIT [2], the Kd was found to be 1680 nM, the koff was 0.34 s⁻¹ and the kon came to 200000 M⁻¹ s⁻¹.
